Source: PubChem BioAssay AID686978 (National Center for Advancing Translational Sciences (NCATS), 2013)
Values joined by “and” are separate entries in the source; they are usually repeats but may differ in a detail not shown here. Equal entries are not always repeated. The campaign covered roughly 420,000 compounds. About 64,000 (15%) were called active. Inconclusive means that the source gave no clear call. Such entries were picked first, then a sample of the others. The call rests on the fitted dose curve; in most records, active means well fitted inhibition curve with a large enough effect; inconclusive means small, poorly fitted or top-dose-only effect; inactive means flat fitted curve, though single readings scatter. Where the call is inconclusive, the potency comes from a doubtful curve fit.

experiment: qHTS for Inhibitors of human tyrosyl-DNA phosphodiesterase 1 (TDP1): qHTS in cells in absence of CPT; details: DT40 Tdp1-/- hTDP1 cells, no CPT, ATP luminescence, 48 h; activity change, negative = growth inhibition: at 46.2 µM (top of the series) unless noted; further: nearly all actives have a fitted effect of over 55% in size
Method in brief: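 Chicken DT40 Tdp1-/- cells complemented with human TDP1, screened without camptothecin (DMSO vehicle only), 400 cells/well. Compounds pin-transferred, cells incubated at 37 °C for at least 48 hr. Growth read as ATP-dependent luminescence (CellTiter-Glo, 30 min at RT).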
On the % scale 0 is the no-effect control and ±100 the full control effect; potency means the concentration at half of the fitted maximal effect; tags describe the fitted curve by direction and shape.

| Structure (SMILES) | Potency | activity change, negative = growth inhibition |
| --- | --- | --- |
| CC(C)CSc1oc(-c2ccco2)nc1S(=O)(=O)c1ccc(Br)cc1 | inconclusive: 29.1 µM [inhibitor, single point] |  |
| CC1=C/C(=C\c2ccc(N(C)C)cc2)c2ccccc21 | inconclusive: 35.5 µM [inhibitor, single point] |  |
| CCOC(=O)c1ccc(S(=O)(=O)N2CCC(C(=O)O)CC2)cc1 |  | inactive: -10.5% |
| CN(C)CCN(C(=O)c1ccc2ccccc2c1)c1nc2ccc(F)cc2s1 |  | inactive: -20.9% |
| CSc1ncccc1C(=O)N1CCCC(Nc2ccc(F)c(F)c2)C1 (centres undefined) | inconclusive: 20.6 µM [inhibitor, single point] |  |
| Cc1ccc(NC(=O)CCc2ccc(S(=O)(=O)N3CCOCC3)cc2)c(C)c1 |  | inactive: -9.33% |
| Cc1nn(CC(=O)Nc2cccc(C(F)(F)F)c2)c(=O)c2nn(-c3ccccc3)c(C)c12 |  | inactive: -2.86% |
| COc1ccc(OC)c(NC(=O)C(=O)NNC(=O)c2cccs2)c1 | inconclusive: 20.6 µM [inhibitor, single point] |  |
| c1ccc(C(c2ccccc2)c2noc(CN3CCC(c4ccncc4)CC3)n2)cc1 | inconclusive: 16.4 µM [inhibitor, single point] |  |
| COc1cccc(NC(=O)CCN2C(=O)C3CC=CCC3C2=O)c1 (centres undefined) |  | inactive: 15.5% |
| COc1cccc(-c2cc(C(=O)Nc3nc4ccccc4s3)c3ccccc3n2)c1 | active: 25.9 µM |  |
| O=C(Cc1cccs1)Nc1ccccc1NC(=O)Cc1cccs1 |  | inactive: -14.5% |
| COC(=O)[C@]12CCCCC=C1N(CCC1=CCCCC1)C(=O)[C@H](CC(=O)NCCC(C)C)C2 | inconclusive: 29.1 µM [inhibitor, single point] |  |
| O=C(NCCc1csc(-c2ccc(F)cc2)n1)c1c(F)cccc1Cl | inconclusive: 18.4 µM [inhibitor, single point] |  |
| CCC1CCCCN1CCCNC(=O)c1ccc2nc(N3CCC(C)CC3)sc2c1 (centres undefined) | inconclusive: 18.4 µM [inhibitor, single point] |  |
| CCC1=C(OC(=O)N(CC)CC)N2C(=O)OC(=NCC(=O)OC)[C@]2(Cc2ccccc2)[C@H]2C1=CC[C@H]1C(=O)N(c3ccccc3)C(=O)[C@H]12 | inconclusive: 20.6 µM [inhibitor, single point] |  |
| O=C(COC(=O)c1cc(-c2ccccc2)nc2c(Cl)cccc12)c1ccc(F)cc1 | inconclusive: 18.4 µM [inhibitor, single point] |  |
| Cc1nc2c(C(=O)NCCC(C)C)c[nH]n2c(=O)c1Cl |  | inactive: -21.1% |
| Cc1cc([N+](=O)[O-])ccc1NC(=O)C1CCCO1 (centres undefined) |  | inactive: -7.79% |
| CCC(=O)Nc1cccc(C(=O)OC)c1 |  | inactive: -41.7% |
| COc1cc(OC)c2ccc(=O)oc2c1C(CCN1CCCC1)c1ccc2c(c1)OCO2 (centres undefined) | active: 18.4 µM |  |
| COc1ccc(CCNC(=O)C/C(C)=N/NC(=O)c2ccc(Cl)cc2Cl)cc1OC |  | inactive: 22.5% |
| COC(=O)c1c(C)[nH]c(C(=O)/C=C/c2ccc(C)cc2)c1C |  | inactive: -2.87% |
| CC1(C(=O)NCc2cccc3ccccc23)CCN1Cc1cc2ccccc2o1 (centres undefined) | inconclusive: 25.9 µM [inhibitor, single point] |  |
| O=C(Nc1nc2c(s1)C(=O)CCC2)c1ccccc1 | inconclusive: 13 µM [inhibitor, partial curve, poor fit] |  |

| Structure (SMILES) | Potency | activity change, negative = growth inhibition |
| --- | --- | --- |
| CNC(=O)c1sc(-c2ccccc2)nc1C |  | inactive: -0.472% |
| CCCCN(Cc1nc2ccccc2c(=O)[nH]1)C(=O)c1nn(C)c(=O)c2ccccc12 | inconclusive: 18.4 µM [inhibitor, single point] |  |
| CCOc1ccc(-c2nnn(CC(=O)c3cc(OC)ccc3OC)n2)cc1 | inconclusive: 29.1 µM [inhibitor, single point] |  |
| CCC(C)c1c(O)nc(SCC(=O)c2ccccc2)[nH]c1=O (centres undefined) | inconclusive: 14.6 µM [inhibitor, partial curve] |  |
| Cc1cccc(CSc2nc(-c3cccc(C)c3)nc3c2Cc2c(CO)cnc(C)c2O3)c1 | inconclusive: 29.1 µM [inhibitor, single point] |  |
| CCN(CC)S(=O)(=O)c1ccc2c(c1)nc(CCC(=O)Nc1ccccc1Cc1ccccc1)n2CC | active: 23.1 µM |  |
| C=C(C)C1Cc2c(C)nn(-c3ccccn3)c2C1 (centres undefined) | inconclusive: 29.1 µM [inhibitor, single point] |  |
| O=C1N=C2SCCN2C(=O)C1Cc1ccc(Cl)cc1 (centres undefined) |  | inactive: -18.3% |
| CCOC(=O)C1=C[C@@H](C(C)C)N(S(=O)(=O)c2ccc(C)cc2)[C@H]1c1ccc(C(F)(F)F)cc1 | active: 11.6 µM |  |
| Cc1ccc(CN2CCCN(Cc3c(C)cc(C)cc3C)S2(=O)=O)cc1 | inconclusive: 20.6 µM [inhibitor, single point] and inconclusive: 16.4 µM [inhibitor, single point] |  |
| Cc1cc(-c2n[nH]c(=S)n2-c2ccc(C)c(C)c2)no1 |  | inactive: -4.09% |
| CCOc1cc(/C=C2\SC(=N)N(c3nonc3N)C2=O)ccc1OCCN1CCOCC1 | active: 20.6 µM |  |
| COc1cccc(CN2CCC2(C)C(=O)Nc2cccc(Oc3ccccc3)c2)c1OC (centres undefined) | active: 20.6 µM |  |
| CCCSC1=NC2(CCN(C(=O)NC3CCCCC3)CC2)N=C1c1ccc(Cl)cc1 |  | inactive: 3.66% |
| COC(=O)CC(=O)CSc1nc(C)cc(C)c1C#N | inconclusive: 29.1 µM [inhibitor, single point] |  |
| CC(C)Sc1oc(-c2ccco2)nc1S(=O)(=O)c1ccc(F)cc1 | inconclusive: 29.1 µM [inhibitor, single point] |  |
| Cc1cc(C(O)c2ncc(-c3ccccc3C)[nH]2)ccc1F (centres undefined) | inconclusive: 16.4 µM [inhibitor, single point] |  |
| O=c1c(-c2ccc(F)cc2)nc2cnc(N3CCNCC3)nc2n1-c1ccccc1 | inconclusive: 16.4 µM [inhibitor, partial curve, poor fit] |  |
| CCOC(=O)C1CCN(C(=O)CN(c2cc(Cl)ccc2OC)S(=O)(=O)c2ccccc2)CC1 |  | inconclusive: -33.8% [inhibitor] |
| CN(C)CCNC(=O)c1cccc(-c2cc(NC=O)c3ncc(-c4cccc(C(F)(F)F)c4)n3c2)c1 | active: 5.17 µM |  |
| Cn1cc(CN2CCC(CO)(CCCc3ccccc3)CC2)c(-c2ccccc2)n1 | inconclusive: 18.4 µM [inhibitor, single point] |  |
| COc1ccc2c(c1)CCC1C2CCC2(C)C(O)C(=O)CC12 (centres undefined) | inconclusive: 20.6 µM [inhibitor, single point] |  |
| CC(C)n1c(SCC(=O)Nc2nc3c(s2)CCCC3)nc2c1c(=O)n(C)c(=O)n2C | active: 2.91 µM |  |
| O=Cc1ccc(Oc2cc(-c3ccccc3)nc(-c3ccccc3)n2)cc1 | inconclusive: 29.1 µM [inhibitor, single point] |  |
| CCCOc1cccc(NC(=O)OC2CCN(C)CC2)c1 |  | inactive: 4.42% |

| Structure (SMILES) | Potency | activity change, negative = growth inhibition |
| --- | --- | --- |
| COc1ccc(C)cc1NC(=O)COCc1cc(-c2ccc(F)cc2)on1 | inconclusive: 20.6 µM [inhibitor, single point] |  |
| CC(=O)c1ccc(O)c(CSC2=NCCS2)c1 |  | inactive: -23.3% |
| CCOC(=O)c1c(NC(=O)COC(=O)c2nccnc2N)sc(C(=O)N(C)C)c1C | inconclusive: 8.2 µM [inhibitor, partial curve] |  |
| O=C(NNC1=C(C(=O)C(F)(F)F)CCC1)c1ccncc1 | active: 1.64 µM |  |
| Nc1ccc(-c2cc(NC=O)c3ncc(-c4cccc(C(F)(F)F)c4)n3c2)cn1 | active: 10.3 µM |  |
| Cc1ccc(S(=O)(=O)N2CCOCC2)cc1NC(=O)CNCc1ccccc1Cl | inconclusive: 25.9 µM [inhibitor, partial curve, poor fit] |  |
| CC(=O)OCC1=C(C(=O)O)N2C(=O)C(NC(=O)c3ccc(COc4ccc(Cl)cc4)o3)C2SC1 (centres undefined) | inconclusive: 13 µM [inhibitor, partial curve] |  |
| COCCn1c(SCc2ccc(OC)c(F)c2)nc2ccccc2c1=O | active: 20.6 µM |  |
| COc1ccc(-c2nnn(CC(=O)c3ccc4c(c3)OCCO4)n2)cc1OC |  | inactive: -16.7% |
| Cc1ccc(OCCNCc2ccccc2)c(C)c1 | inconclusive: 29.1 µM [inhibitor, single point] |  |
| CS(=O)(=O)c1nc([N+](=O)[O-])nn1CCCc1ccccc1 | active: 13 µM |  |
| Cc1cccc(NNC(=S)Nc2ccccc2)c1 | active: 2.59 µM |  |
| CC1CCCCC1N(C)C1CCN(C(=O)CNC(=O)/C=C/c2cccc(Cl)c2)CC1 (centres undefined) | inconclusive: 6.51 µM [inhibitor, single point] |  |
| Cc1nn(Cc2noc(C(=O)NC(C)c3ccccc3)n2)c(C)c1Br (centres undefined) |  | inactive: -25.4% |
| O=C(O)c1cc(-c2ccc3c(c2)OCO3)nc2ccc(Br)cc12 |  | inactive: -2.11% |
| O=C(N/N=C/c1cn(-c2ccccc2)nc1-c1cc2ccccc2o1)c1ccncc1 | active: 18.4 µM |  |
| CN(CC(=O)Nc1c(Cl)cccc1Cl)C(=O)c1cc(-c2cccs2)nn1-c1ccccc1 | inconclusive: 29.1 µM [inhibitor, single point] |  |
| Cc1ccc(N2CCN(S(=O)(=O)c3c(C)[nH]c(=O)[nH]c3=O)CC2C)cc1 (centres undefined) |  | inactive: 1.87% |
| CCOC(=O)C(C(=O)OCC)C(c1ccccc1)N1CCN(c2ccccc2)CC1 (centres undefined) | active: 20.6 µM |  |
| COc1ccc(OC)c(CCNC(=O)CCn2c(=O)c3cccn3c3ccc(F)cc32)c1 | inconclusive: 2.31 µM [inhibitor, full curve] |  |
| CC(C)C(=O)N1CCCC1(C)C(=O)Nc1ccc(-n2cccc2)cc1 (centres undefined) |  | inactive: -6.37% |
| O=[N+]([O-])c1ccc2nc(SCc3ccccc3Cl)sc2c1 | inconclusive: 25.9 µM [inhibitor, single point] |  |
| COc1cc2ccc(=O)oc2cc1O | inactive |  |
| COc1ccc(CC(=O)NCC2CCCN(Cc3ccccc3Cl)C2)cc1 (centres undefined) |  | inactive: -26.3% |
